Some of the results follow. The energies were worked out here from pooled read counts, against the library average; single values are noisy.

The target of this assay is T1, Pho4 (S. cerevisiae) (UniProt P07270).
T1 sequence: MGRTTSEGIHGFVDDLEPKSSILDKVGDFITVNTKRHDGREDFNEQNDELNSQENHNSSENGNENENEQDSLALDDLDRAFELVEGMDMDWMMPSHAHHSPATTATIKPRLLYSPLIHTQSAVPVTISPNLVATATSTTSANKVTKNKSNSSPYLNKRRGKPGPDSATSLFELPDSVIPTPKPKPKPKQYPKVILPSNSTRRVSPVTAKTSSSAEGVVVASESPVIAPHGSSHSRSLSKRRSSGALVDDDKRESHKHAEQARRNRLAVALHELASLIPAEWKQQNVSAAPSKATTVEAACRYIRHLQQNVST
Description: relative binding free energy (BET-seq); higher = weaker binding. The conditions noted are these: reference: library average.
For TCCGGCACGTGGGTGG, the “relative binding free energy” value is -0.26 kcal/mol. As to GGTCTCACGTGATAGG, the “relative binding free energy” value was 0.3 kcal/mol.

Regarding CGGAGCACGTGGGGTT, the “relative binding free energy” value was -0.17 kcal/mol. The value for TGCTCCACGTGGGCGG was -0.1 kcal/mol; that for TGGGACACGTGTTGGA was 0.03 kcal/mol; that for TGCGGCACGTGGGTGT was -0.25 kcal/mol. Next, ATGATCACGTGCGAGG: 0.07 kcal/mol; CTAGGCACGTGGTGAT: -0.16 kcal/mol; TATAGCACGTGGGGAA: -0.32 kcal/mol. GAAAACACGTGGGATG: the “relative binding free energy” value is 0.06 kcal/mol. For GGACTCACGTGTGATG, the “relative binding free energy” value is 0.39 kcal/mol. The value for TAGTACACGTGTTGAA was -0.06 kcal/mol; that for AGGGTCACGTGCGGTG was 0.09 kcal/mol. For AAATGCACGTGTAGTG, the “relative binding free energy” value is -0.21 kcal/mol. In the case of GGAATCACGTGGGATT, the “relative binding free energy” value is 0.06 kcal/mol. The value for TCGATCACGTGGTTGG was 0.13 kcal/mol; that for GTTGTCACGTGGAGTC was 0.24 kcal/mol. The value for TGAGGCACGTGTCTTG was -0.06 kcal/mol; that for TACTTCACGTGGGTAG was 0.13 kcal/mol. As for TGTATCACGTGTGACT, the “relative binding free energy” value worked out at 0.18 kcal/mol. For TTGAGCACGTGGAAGT, the “relative binding free energy” value stood at 0.04 kcal/mol.

As for GGGGGCACGTGCTGTA, the “relative binding free energy” value was -0.32 kcal/mol. Take AATGTCACGTGTTTAA: the “relative binding free energy” value came to 0.07 kcal/mol. The value for GTAAGCACGTGGCGTG was -0.24 kcal/mol. The value for AAGTGCACGTGTGTTG was -0.03 kcal/mol. Next, GGGCTCACGTGTGGTG: 0.3 kcal/mol. As to GTGTTCACGTGTCATT, the “relative binding free energy” value was determined as 0.26 kcal/mol. The value for ACTTACACGTGAGGTG was 0.31 kcal/mol; that for ACGGACACGTGTGGGT was 0.06 kcal/mol; that for ATGGGCACGTGTTCTG was -0.01 kcal/mol.

Regarding GGAGTCACGTGTGCAT, the “relative binding free energy” value is 0.13 kcal/mol. On to TTAAGCACGTGGAGTG, for which the “relative binding free energy” value is -0.16 kcal/mol. Next, AGTGTCACGTGGTTTT: 0.06 kcal/mol. The value for GTGAGCACGTGTAGTT was 0.05 kcal/mol; that for TGCATCACGTGTGTTT was 0.16 kcal/mol; that for TGTTTCACGTGCTGCG was 0.11 kcal/mol. In the case of TCGTTCACGTGCGTTG, the “relative binding free energy” value was found to be 0 kcal/mol. The value for TGTCTCACGTGAAGTA was 0.36 kcal/mol; that for GAGGACACGTGGCGGT was -0.07 kcal/mol; that for CATTTCACGTGGGATG was 0.08 kcal/mol.

On to TAGGTCACGTGTATGC, for which the “relative binding free energy” value amounted to 0.07 kcal/mol. Next, AGGCCCACGTGTAGGG: -0.11 kcal/mol; CATTACACGTGTTGAT: 0.18 kcal/mol. Turning to GATGTCACGTGATAGT, the “relative binding free energy” value came to 0.18 kcal/mol.

As to TAAAACACGTGGGGTT, the “relative binding free energy” value is -0.02 kcal/mol. The value for AATGTCACGTGTTACA was 0.28 kcal/mol; that for TTGATCACGTGTGAGT was 0.19 kcal/mol; that for AATTGCACGTGAGAGT was 0.24 kcal/mol. For the sequence ACGGTCACGTGGGAGG, the “relative binding free energy” value was -0.07 kcal/mol.

In the case of TATACCACGTGGGTTG, the “relative binding free energy” value is -0.13 kcal/mol. The value for AAAGTCACGTGGGGAA was 0.13 kcal/mol.

Take TTGTGCACGTGTCGAT: the “relative binding free energy” value stood at 0.1 kcal/mol. Next, TTATACACGTGTGTTA: -0.01 kcal/mol; AATGGCACGTGGGGGC: -0.13 kcal/mol.

Consider AAAGACACGTGGTCGG, for which the “relative binding free energy” value came out at 0 kcal/mol. For the sequence AATTTCACGTGGTGAA, the “relative binding free energy” value worked out at 0.11 kcal/mol. As to GGCGCCACGTGGGGGC, the “relative binding free energy” value is -0.22 kcal/mol.

For AAGTTCACGTGTGCTT, the “relative binding free energy” value came out at 0.15 kcal/mol. The value for ATGAACACGTGGGGGT was -0.07 kcal/mol. For CTATTCACGTGGTGAT, the “relative binding free energy” value came to 0.1 kcal/mol. On to CGTAGCACGTGCGGGG, for which the “relative binding free energy” value is -0.14 kcal/mol.

Regarding GGTCTCACGTGAGGTA, the “relative binding free energy” value was 0.19 kcal/mol. With TTATTCACGTGTTATT, the “relative binding free energy” value came out at 0.27 kcal/mol. The value for CTGTTCACGTGGGCGG was 0.1 kcal/mol; that for GTGTTCACGTGGAGAA was 0.15 kcal/mol; that for ATAGGCACGTGTATGG was -0.11 kcal/mol.

Turning to TATTGCACGTGTAATA, the “relative binding free energy” value is 0.14 kcal/mol. Turning to ATGGGCACGTGATTGC, the “relative binding free energy” value is 0.04 kcal/mol. As to GGGCTCACGTGTGGAA, the “relative binding free energy” value came to 0.33 kcal/mol. The value for TCTAGCACGTGGTTGT was -0.08 kcal/mol; that for GGTCGCACGTGTTGAG was -0.07 kcal/mol; that for AGTGACACGTGTTATA was -0.03 kcal/mol. Turning to GTAGTCACGTGGCTGT, the “relative binding free energy” value was found to be 0 kcal/mol. As for TGCGACACGTGGGTGC, the “relative binding free energy” value is -0.18 kcal/mol. Turning to GAGTACACGTGAGTGC, the “relative binding free energy” value was found to be 0.22 kcal/mol. The value for TTGGGCACGTGCCGGA was -0.19 kcal/mol; that for GGGGACACGTGCGGTA was 0.09 kcal/mol; that for ATTATCACGTGTTGAA was 0 kcal/mol. The value for AATAGCACGTGGGCGC was -0.05 kcal/mol. The value for ATATTCACGTGGAGAT was 0.33 kcal/mol; that for TTGAACACGTGTCAGG was 0 kcal/mol. Regarding CTGTCCACGTGGGGGT, the “relative binding free energy” value is -0.1 kcal/mol. In the case of GGTATCACGTGAGCGG, the “relative binding free energy” value came out at 0.3 kcal/mol. On to GCAAGCACGTGTAGGT, for which the “relative binding free energy” value is -0.05 kcal/mol.

With TTTCTCACGTGTAGTA, the “relative binding free energy” value came out at 0.14 kcal/mol. In the case of TTGGCCACGTGGCGGC, the “relative binding free energy” value is -0.02 kcal/mol. Next, TAGGTCACGTGTCGTA: 0.04 kcal/mol.

For TAACACACGTGTTTTT, the “relative binding free energy” value came out at 0.14 kcal/mol. With GGAGTCACGTGGAGAG, the “relative binding free energy” value is 0.19 kcal/mol. The value for GTATTCACGTGAGCTT was 0.38 kcal/mol. Next, AGAGGCACGTGAGGGA: 0.22 kcal/mol. The value for TGATTCACGTGTCAGT was 0.25 kcal/mol; that for CTATGCACGTGTTTGT was 0.01 kcal/mol; that for AAGGACACGTGTAATT was 0.21 kcal/mol. As for GCCGGCACGTGTGGGA, the “relative binding free energy” value turned out to be 0.1 kcal/mol. The value for CCGGGCACGTGATGTT was 0.09 kcal/mol; that for CTAAGCACGTGGGTTG was -0.32 kcal/mol. Next, GGGAACACGTGGGGTC: -0.03 kcal/mol; TGGGTCACGTGCGCAG: -0.09 kcal/mol. Take TTGATCACGTGTTGTG: the “relative binding free energy” value was 0.12 kcal/mol. Turning to TTAGTCACGTGGGTTA, the “relative binding free energy” value is -0.05 kcal/mol.

As to AGTCGCACGTGATAGG, the “relative binding free energy” value was -0.03 kcal/mol. Next, AGTAGCACGTGGATGG: -0.06 kcal/mol. On to TTACGCACGTGGGTTG, for which the “relative binding free energy” value was -0.15 kcal/mol. With AATTGCACGTGTGATA, the “relative binding free energy” value came out at 0.15 kcal/mol. As for AAAGTCACGTGATGGC, the “relative binding free energy” value amounted to 0.35 kcal/mol. Consider AAGACCACGTGGGTGG, for which the “relative binding free energy” value is -0.22 kcal/mol.

Turning to GGATACACGTGAGGAG, the “relative binding free energy” value worked out at 0.38 kcal/mol. Consider GACTTCACGTGGGTAG, for which the “relative binding free energy” value is 0.28 kcal/mol. The value for TTGGTCACGTGGAGGT was 0.15 kcal/mol; that for TAGTGCACGTGAGTCT was 0.22 kcal/mol; that for TAGGCCACGTGTGGGT was -0.11 kcal/mol.

For CGTGTCACGTGGTGTA, the “relative binding free energy” value came out at 0 kcal/mol. Next, TCGGGCACGTGAGTTA: 0.27 kcal/mol; TTGGTCACGTGTGGAT: 0.24 kcal/mol.

(Values after the BET-seq Pho4 binding data (Le et al. 2018).)
